Measured values from patent publication US20130078720A1 (AGENCY FOR SCIENCE TECHNOLOGY AND RESEARCH, published 2013).

What was measured:
HA tagged PRDM14 = biological target: T1, HA tagged PRDM14 (human, UniProt Q9GZV8 1-571); assay: co-IP from lysate of 293T cells co-transfected with HA tagged PRDM14 and NANOG, with anti-HA and anti-Nanog antibody (FIGS. 14I, 14J)
T1 construct: whole cell lysate used for co-IP; not shown: HA tag
T1 sequence: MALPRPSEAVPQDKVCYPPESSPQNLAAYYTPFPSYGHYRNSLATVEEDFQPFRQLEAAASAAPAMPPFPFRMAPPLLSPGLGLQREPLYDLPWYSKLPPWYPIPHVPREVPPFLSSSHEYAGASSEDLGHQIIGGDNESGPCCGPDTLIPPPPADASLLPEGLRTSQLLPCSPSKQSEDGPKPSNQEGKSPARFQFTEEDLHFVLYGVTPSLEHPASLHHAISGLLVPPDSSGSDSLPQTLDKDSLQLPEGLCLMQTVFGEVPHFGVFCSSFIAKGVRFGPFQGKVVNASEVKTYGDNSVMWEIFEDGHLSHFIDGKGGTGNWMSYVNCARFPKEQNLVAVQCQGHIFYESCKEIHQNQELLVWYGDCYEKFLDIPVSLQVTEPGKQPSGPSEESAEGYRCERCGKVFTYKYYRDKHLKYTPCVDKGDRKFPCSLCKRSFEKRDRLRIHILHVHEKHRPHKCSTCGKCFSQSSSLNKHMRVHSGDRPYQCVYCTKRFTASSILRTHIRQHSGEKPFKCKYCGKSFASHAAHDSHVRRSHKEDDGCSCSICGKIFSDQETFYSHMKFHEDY

[1] = biological target: T2, PR domain-containing protein 14 (PRDM14) (human, UniProt Q9GZV8 1-571); assay: co-IP from hESC whole cell lysate with anti-Nanog antibody, western with PRDM14 antibody (FIG. 14H)
T2 construct: the whole entry is used; also called native PRDM14
T2 sequence: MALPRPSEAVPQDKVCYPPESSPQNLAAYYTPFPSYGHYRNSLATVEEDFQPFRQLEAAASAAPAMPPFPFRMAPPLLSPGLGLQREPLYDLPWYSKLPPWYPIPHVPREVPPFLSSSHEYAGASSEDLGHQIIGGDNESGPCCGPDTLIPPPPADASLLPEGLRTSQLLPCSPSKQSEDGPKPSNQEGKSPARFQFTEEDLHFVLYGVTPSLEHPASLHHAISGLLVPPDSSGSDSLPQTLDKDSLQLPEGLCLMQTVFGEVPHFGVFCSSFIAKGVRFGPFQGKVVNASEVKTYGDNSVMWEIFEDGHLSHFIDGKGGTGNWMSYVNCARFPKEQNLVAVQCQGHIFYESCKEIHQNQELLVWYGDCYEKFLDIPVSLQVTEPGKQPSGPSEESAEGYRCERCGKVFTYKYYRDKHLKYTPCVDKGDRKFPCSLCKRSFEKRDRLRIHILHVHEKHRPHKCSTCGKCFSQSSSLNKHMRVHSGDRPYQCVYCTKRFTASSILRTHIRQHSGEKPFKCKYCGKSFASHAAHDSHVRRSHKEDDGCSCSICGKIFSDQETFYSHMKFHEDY

B1: NANOG (other, human, UniProt Q9H9S0 1-305, looked up)
chain: MSVDPACPQSLPCFEASDCKESSPMPVICGPEENYPSLQMSSAEMPHTETVSPLPSSMDLLIQDSPDSSTSPKGKQPTSAEKSVAKKEDKVPVKKQKTRTVFSSTQLCVLNDRFQRQKYLSLQQMQELSNILNLSYKQVKTWFQNQRMKSKRWQKNNWPKNSNGVTQKASAPTYPSLYSSYHQGCLVNPTGNLPMWSNQTWNNSTWSNQTQNIQSWSNHSWNTQTWCTQSWNNQAWNSPFYNCGEESLQSCMQFQPNSPASDLEAALEAAGEGLNVIQQTTRYFSTPQTMDLFLNYSMNMQPEDV
notes: No tag is stated
binding result (HA tagged PRDM14): binds | binding result [1]: binds
